From PubChem BioAssay AID624418 (National Center for Advancing Translational Sciences (NCATS), 2012)
In all, about 410,000 compounds went through this assay and about 530 (0.13%) were called active. The inconclusive results got no clear call from the source; some entries with a clear call stand among them for comparison. Calls follow the shape of the dose curve; as a rule, active = well fitted inhibition curve with a large enough effect; inconclusive = small, poorly fitted or top-dose-only effect, or another doubt; inactive = no such curve, though single readings can be large or run the other way. A potency beside an inconclusive call is a rough fit, not a confirmed value.

Assay: qHTS of GLP-1 Receptor Inverse Agonists: Cytotox Screen
Settings: HEK293 cAMP-luciferase reporter cells, luminescence, 24 h; activity change, negative = inhibition: at 38.3 µM (top of the series) unless noted
Summary of the method: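 Here, cytotoxicity is scored as loss of luminescence. The MLSMR collection was tested on cells seeded in medium containing 10% Nu serum, with a 24 hr compound exposure preceded by 12 hours of culture.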
% is scaled to controls: 0 for no effect and ±100 for the full control effect; potency is read from the fitted curve at half-maximal effect.

SMILES | Potency | activity change, negative = inhibition
COC(=O)c1cc([N+](=O)[O-])c(-n2cncn2)c([N+](=O)[O-])c1 | inconclusive: 28.2 µM [inhibitor, single point] | 
CN(C)CCNS(=O)(=O)c1ccc(N2CCc3ccccc32)c([N+](=O)[O-])c1 | inconclusive: 11.2 µM [inhibitor, partial curve, poor fit] | 
COc1ccc(C2C=C(C34CC5CC(CC(C5)C3)C4)NC(=S)N2)cc1 (configuration not stated) | inconclusive: 31.6 µM [inhibitor, partial curve, poor fit] | 
Cc1c(Cl)sn(-c2ccc(Cl)cc2)c1=O | inconclusive: 4.47 µM [inhibitor, full curve, poor fit] | 
Cc1ccc2[nH]cc(C(=O)CCl)c2c1 | inconclusive: 22.4 µM [inhibitor, single point] | 
O=C(COc1ccc2ccccc2c1)N/N=C/C1CC=CCC1 (configuration not stated) | inconclusive: 0.891 µM [inhibitor, full curve] | 
CN(C)CCCN1c2ccc(O)cc2Sc2ccc(Cl)cc21 | inconclusive: 10 µM [inhibitor, single point] | 
C(=N\Nc1nc2ccccc2[nH]1)/c1cccc2nccnc12 | inconclusive: 28.2 µM [inhibitor, single point] | 
COc1ccc(-c2cn3nc(N4CCC(C(=O)Nc5cccc(OC)c5)CC4)sc3n2)cc1 | inactive | 
COc1ccccc1-c1cn[nH]c1-c1ccc(OCc2ccccc2)cc1O | inconclusive: 11.2 µM [inhibitor, single point] | 
COC(=O)CN1C(=O)[C@H]2[C@@H](c3ccc(C)o3)N3C(=O)CN(CC4CC4)C(=O)[C@@]3(Cc3ccccc3)[C@H]2C1=O | inconclusive: 0.501 µM [inhibitor, full curve, poor fit] | 
COc1cc(NC(=O)c2cccc([N+](=O)[O-])c2C)ccc1NC(=O)c1ccco1 | inconclusive: 28.2 µM [inhibitor, single point] | 
CN(C)Cc1nc2c(c(=O)[nH]1)C1(CCCCC1)Cc1ccccc1-2 | inactive | 
Cc1ccc(-c2nc(-c3cc4cccc(OCc5ccc(F)cc5)c4oc3=O)no2)cc1 | inactive | 
Cc1ccccc1NC(=S)NCC1CCN(C(C)c2ccccc2)C1 (configuration not stated) | inactive | 
Cc1ccc(CN2CCSc3ccc(C(=O)NCCCN4CCN(C)CC4)cc32)cc1 | inconclusive: 10 µM [inhibitor, partial curve] | 
CCOC(=O)c1c(NC(=O)CC)sc(C(=O)N2CCCCC2)c1C | inconclusive: 20 µM [inhibitor, single point] | 
Cc1ccc(SCC(=O)NCc2ccccc2)cc1 | inactive | 
CC(C)CN(C(=O)COC(=O)c1ccccn1)c1c(N)n(Cc2ccccc2)c(=O)[nH]c1=O | inactive | 
CCc1nc2ccc(C(=O)N(C)CC(=O)Nc3ccc(Cl)c(C(F)(F)F)c3)cc2nc1CC | inconclusive: 28.2 µM [inhibitor, single point] | 
CCCCOC(=O)n1c(=S)oc2cc(Cl)ccc21 | inconclusive: 10 µM [inhibitor, single point] | 
CCCCOc1ccc(N(CC(=O)NC(C)C)C(=O)CCC(=O)Nc2ccccn2)cc1 | inconclusive: 28.2 µM [inhibitor, single point] | 
CCCCn1c(N)c(N(CC(C)C)C(=O)CSCc2c(C)noc2C)c(=O)[nH]c1=O | inactive | 

SMILES | Potency | activity change, negative = inhibition
O=C(Oc1ccc(Cl)c2cccnc12)c1ccco1 | inconclusive: 2 µM [inhibitor, full curve, poor fit] | 
CCOc1ccc(CCN2C(=O)C(=O)N([C@@H](Cc3ccccc3)CN3CCC[C@H]3CN3C(=O)C(=O)NC[C@@H]3Cc3ccccc3)C[C@@H]2Cc2ccccc2)cc1 | inconclusive: 22.4 µM [inhibitor, single point] | 
COc1ccc(Cn2c(CCC(=O)Nc3ccc(C)c(C)c3)nc3cccnc32)cc1 | inconclusive: 28.2 µM [inhibitor, single point] | 
COc1ccc(C(=O)NC(=S)NC(C)c2ccccc2)cc1 (configuration not stated) | inconclusive: 11.2 µM [inhibitor, single point] | 
CC(=O)N(C)c1ccc(OCC(O)COc2ccc(N(C)C(C)=O)cc2)cc1 | inactive | 
CCOC(=O)c1ccc(NC(=O)CSc2nc3ccccc3c(=O)n2CCNC(C)=O)cc1 | inactive | 
O=C(N/N=C/c1ccccn1)c1ccc(Br)cc1 | inconclusive: 2.51 µM [inhibitor, full curve, poor fit] | 
Cc1cccc(NC(=O)c2ccc(Cl)c(S(=O)(=O)N3CCCC3)c2)n1 | inactive | 
C/C(=N\NC(=O)COc1ccccc1)c1cccs1 | inactive | 
Cc1cccc(C(=O)Nc2ccccc2C(=O)OCC(=O)Nc2ccc(C#N)cc2)c1 | inactive | 
Cc1ccc2c(c1)C=CC(C#N)N2C(=O)c1ccccc1 (configuration not stated) | inconclusive: 1.12 µM [inhibitor, full curve] | 
O=C(N/N=C/c1ccccn1)c1cccc([N+](=O)[O-])c1 | inconclusive: 12.6 µM [inhibitor, single point] | 
CCC(Sc1nc(=O)cc(N)n1-c1cccc(C)c1)C(=O)Nc1cc(C)on1 (configuration not stated) | inconclusive: 2.82 µM [inhibitor, full curve, poor fit] | 
O=[N+]([O-])c1ccc(N2CCN(c3ccc(O)cc3)CC2)cn1 | inconclusive: 28.2 µM [inhibitor, single point] | 
CCN(CC)CCOc1cccc(C(C)C)c1 | inconclusive: 31.6 µM [inhibitor, single point] | 
O=[N+]([O-])c1cc(Br)cc(C=Nc2ccc3c(c2)OCO3)c1O | inconclusive: 31.6 µM [inhibitor, partial curve, poor fit] | 
Oc1ccc(/C=N/Nc2cc(N3CCCC3)nc(N3CCCC3)n2)cc1 | inconclusive: 11.2 µM [inhibitor, partial curve, poor fit] | 
Cc1cccc(CN2CCCC(C(=O)c3ccc4c5c(cccc35)CC4)C2)n1 (configuration not stated) | inconclusive: 11.2 µM [inhibitor, partial curve, poor fit] | 
Cc1cccc(N=C2NC(=O)/C(=C/c3cccs3)S2)c1 | inactive | 
CNC[C@H]1Oc2ccc(NC(=O)Nc3ccccc3)cc2CC(=O)N([C@H](C)CO)C[C@H]1C | inconclusive: 0.501 µM [inhibitor, full curve, poor fit] | 
Cc1cccc(-n2c(-c3ccccc3)c[nH]c2=S)c1C | inconclusive: 11.2 µM [inhibitor, single point] | 
Cc1cc(NCCCn2ccnc2)n2ncc(-c3ccc(Cl)cc3)c2n1 | inconclusive: 28.2 µM [inhibitor, single point] | 
CN(C)c1nnnn1-c1ccc(Cl)cc1Cl | inconclusive: 28.2 µM [inhibitor, single point] | 

SMILES | Potency | activity change, negative = inhibition
COc1ccc(S(=O)(=O)Nc2ccc(S(=O)(=O)NCC3CCCO3)cc2)cc1 (configuration not stated) | inactive | 
Fc1ccccc1NC(=S)NCCc1ccc(Cl)cc1 | inconclusive: 22.4 µM [inhibitor, single point] | 
Cc1ccc(/C(O)=C2/C(=O)C(=O)N(CCCn3ccnc3)C2c2cccnc2)cc1 (configuration not stated) | inconclusive: 12.6 µM [inhibitor, single point] | 
O=C(COC(=O)c1ccc(O)cc1O)NCCN1C(=O)CSC1=O | inconclusive: 2 µM [inhibitor, partial curve, poor fit] | 
COc1ccc(-n2nc([N+](=O)[O-])c(=NCCc3ccc(Cl)cc3)n2O)cc1 | inconclusive: 12.6 µM [inhibitor, single point] | 
Cn1cnc(C(=O)NCc2ccccc2)c1C(=O)NCc1ccccc1 | inconclusive: 0.501 µM [inhibitor, full curve, poor fit] | 
O=C(O)c1c(-c2ccccc2)oc2ccc(OCc3ccc(Cl)c(Cl)c3)cc12 | inactive | 
CCCCn1c(-c2ccc(OC)cc2)nc2c(=O)n(C)c(=O)[nH]c21 | inactive | 
S=C1NCCc2ccccc2C1c1ccccc1 (configuration not stated) | inconclusive: 15.8 µM [inhibitor, partial curve, poor fit] | 
S=c1[nH]nc(COc2ccccc2)n1/N=C/c1ccccc1Cl |  | inconclusive: -64% [inhibitor]
CC1CCCN(C(=O)c2ccc([N+](=O)[O-])o2)C1 (configuration not stated) | inconclusive: 28.2 µM [inhibitor, single point] | 
Cc1ccc(OCCC(=O)Nc2cc(S(=O)(=O)N3CCOCC3)ccc2N2CCCC2)cc1 | inactive | 
NC(N)=N/N=C/c1ccc(Cl)cc1Cl | inconclusive: 28.2 µM [inhibitor, single point] | 
Cc1ccc(NC(=O)c2cc([N+](=O)[O-])ccc2NCc2cccnc2)cc1 | inconclusive: 28.2 µM [inhibitor, single point] | 
S=C(Nc1ccc(Cl)c(Cl)c1)NC1CCN(Cc2ccccc2)CC1 | inconclusive: 10 µM [inhibitor, partial curve] | 
Cc1ccccc1N1CCN(Cc2c[nH]c3ccccc23)CC1 | inconclusive: 22.4 µM [inhibitor, single point] | 
CCOc1ccc(Cl)cc1CNCCCSc1nc(C)cc(C)n1 | inconclusive: 28.2 µM [inhibitor, single point] | 
Cc1ccc(-c2nn(-c3ccc(F)cc3)c3c2cnc2cc(F)c(F)cc23)cc1 | inactive | 
CCCCCCCCCCCCCCC(O)C[N+](C)(CCO)CCO (configuration not stated) | inconclusive: 20 µM [inhibitor, single point] | 
COc1ccc(C(=O)N/N=C(\C)CC(=O)Nc2ccc(Cl)cn2)cc1 | inconclusive: 10 µM [inhibitor, single point] | 
Cc1ccc2c(C)nc(Nc3nc(CSc4nc5ccccc5[nH]4)cc(=O)[nH]3)nc2c1 | inconclusive: 8.91 µM [inhibitor, partial curve, poor fit] | 
